Measured values published in PubChem BioAssay (Tox21).
The inconclusive results got no clear call from the source. A potency beside an inconclusive call is a rough fit, not a confirmed value.

Assay: qHTS assay to identify small molecule antagonists of the TGF-beta/Smad signaling pathway (AID 1346924)
Details: SBE-bla HEK293T, TGF-beta/Smad reporter, beta-lactamase ratio; activity, negative = inhibition: at 76.8 µM (top of the series) unless noted; active = well fitted inhibition curve with a large enough effect in the signal ratio in the repeat runs (not every such curve was filed as active); inconclusive = weak or mixed curves; inactive = flat fitted curve, though single readings scatter; the % refers to the signal ratio
From the text: U.S. Tox21 Program National Center for Advancing Translational Sciences [NCATS] NIH Chemical Genomics Center [NCGC] U.S. Environmental Protection Agency [EPA] National Institutes of Environmental Health Sciences [NIEHS] National Toxicology Program [NTP] U.S. Food and Drug Administration [FDA] Tox21 Assay Overview: Transforming growth factor beta (TGF-beta) superfamily consists of a large number of structurally related dimeric proteins that act as hormones or local mediators in regulating a wide range of biological functions. This superfamily includes TGF-betas themselves, the bone morphogenetic proteins (BMPs) and the activins. These ligands induce oligomerization of serine/threonine receptor kinases and phosphorylate the cytoplasmic signaling molecules of Smad protein family. CellSensor SBE-bla HEK 293T cell line (Life Technologies, Carlsbad, CA), responsive to TGF-beta was used to screen Tox21 10K compound library for identification of agonists/antagonists of the Smad signaling pathway. This cell line contains a beta-lactamase reporter gene under control of the Smad binding element (SBE) stably integrated into HEK 293T cells.
Tox21 Assay Protocol Summary: SBE-bla HEK 293T cells were dispensed at 4,000/well in 5 uL of assay medium into black wall/clear-bottom 1536-well plates using a Multidrop Combi (ThermoFisher Scientific, Waltham, MA) dispenser. After the assay plates were incubated at 37 C and 5% CO2 for an overnight, 23 nL of compounds dissolved in DMSO, positive controls or DMSO only was transferred to the assay plate by a Pintool station (Kalypsys, San Diego, CA). Compound transfer was followed by the addition of 1 uL of 0.25 ng/mL TGF-beta1 or assay buffer using two separate tips of Flying Reagent Dispenser (FRD, Aurora Discovery, San Diego, CA). The assay plates were incubated at 37 C and 5% CO2 for 5 hr. One uL of LiveBLAzer B/G FRET substrate (Life Technologies) was added using FRD and the plates were incubated at room temperature for 2 hr. Fluorescence intensity (405 nm excitation, 460 nm and 530 nm emissions) was measured using an Envision plate reader (PerkinElmer, Shelton, CT).
Potency is the fitted concentration of half-maximal effect; tags give direction and shape of the fitted curve or compound fluorescence and quenching.

SMILES | activity, negative = inhibition | Potency
CCN1CCCC1CNC(=O)C(O)(c1ccccc1)c1ccccc1 (stereo not given) | inconclusive: 4.67% [at 35.3 µM] | 
N#Cc1ccccc1N | inconclusive: 25.4% | 
COC1=CC(=O)O[C@@H](/C=C/c2ccc3c(c2)OCO3)C1 | inconclusive: 18.1% | 
CCOP(=S)(OCC)Oc1cc(-c2ccccc2)on1 | inconclusive: -40.2% | 
CCNC(=O)NC(=O)/C(C#N)=N/OC | inconclusive: 18.9% | 
Cc1c(F)c(F)c(COC(=O)C2C(/C=C(\Cl)C(F)(F)F)C2(C)C)c(F)c1F (stereo not given) | inconclusive: -31.6% | 
O=c1[nH]c(Cl)c(Cl)cc1Cl | inconclusive: -1.25% | 
CCOC(=O)C(Cl)Cc1cc(-n2nc(C)n(C(F)F)c2=O)c(F)cc1Cl (stereo not given) |  | inconclusive: 43.6 µM [rising, partial curve, poor fit]
CN1COCN(Cc2cnc(Cl)s2)/C1=N\[N+](=O)[O-] | inconclusive: 8.1% | 
CC(=O)O.CC(=O)O.CC(=O)O.CC(=O)O.CC(=O)O.CC(=O)O.CC(=O)O.O.O.[Cr].[Cr].[Cr] | inconclusive: -2.71% | 
N#CC(Br)(Br)C(N)=O | inconclusive: 10.2% | 
Nc1c(Br)cc([N+](=O)[O-])cc1[N+](=O)[O-] | inconclusive: 0.867% | 
Cc1nnc2n1-c1sc(CCC(=O)N3CCOCC3)cc1C(c1ccccc1Cl)=NC2 | inconclusive: 1.29% [at 35.3 µM] | 
CCCOc1nn(C(=O)NS(=O)(=O)c2ccccc2C(=O)OC)c(=O)n1C | inconclusive: -7.09% | 
CCCCCCCCCCBr | inconclusive: 5.2% | 
CC#Cc1cc(C)nc(Nc2ccccc2)n1 | inconclusive: -11% | 
Nc1ccc2ccccc2c1 |  | inconclusive: 0.0335 µM [fluorescent, full curve, poor fit]
O=C(O)COc1ccccc1 | inconclusive: -2.58% | 
Cc1nc(N)nc(N)n1 | inconclusive: 15.1% | 

SMILES | activity, negative = inhibition | Potency
c1ccc(Nc2ccc(Nc3ccccc3)cc2)cc1 | inconclusive: -21% | 
CCCCCCCCOC(=O)c1ccc(C(=O)OCCCCCCCC)c(C(=O)OCCCCCCCC)c1 | inconclusive: 0.554% | 
COc1ccc(CO)cc1 | inconclusive: -21.9% | 
COC(=O)c1ccccc1S(=O)(=O)NC(=O)Nc1nc(C)cc(C)n1 | inconclusive: 9.73% | 
Cc1coc2c1CCC(C)C2 (stereo not given) | inconclusive: -17.6% | 
CCCCCl | inconclusive: 30.7% | 
CC(Cl)CN(C)C (stereo not given) | inconclusive: 1.95% | 
CC(=O)C1CCOC1=O (stereo not given) | inconclusive: 11% [at 35.3 µM] | 
O=C1C=CC(=O)c2ccccc21 |  | inconclusive: 19.5 µM [rising, partial curve]
CC[N+](CC)(CC)CC | inconclusive: -1.24% | 
c1cc[c]([Sb]([c]2ccccc2)[c]2ccccc2)cc1 |  | inconclusive: 38.9 µM [rising, partial curve, poor fit]
N#CCCCCC#N | inconclusive: -0.807% | 
ClC(Cl)(Cl)Br | inconclusive: -0.204% [at 15.8 µM] | 
COc1cccc2c1cc([N+](=O)[O-])c1c(C(=O)O)cc3c(c12)OCO3 | inconclusive: 10.9% | 
N#Cc1c(-c2ccc(Cl)cc2)[nH]c(C(F)(F)F)c1Br |  | inconclusive: 3.89 µM [rising, full curve]
ClC(Cl)=C(c1ccc(Cl)cc1)c1ccccc1Cl | inconclusive: -0.0506% | 
CC(O)CN(CC(C)O)CC(C)O (stereo not given) | inconclusive: 30.3% | 
CCOC(=O)COc1ccc(Cl)cc1Cl | inconclusive: 16.1% | 
CN(C)NC(=O)CCC(=O)O |  | inconclusive: 3.09 µM [rising, partial curve, poor fit]

Same assay, conditions: SBE-bla HEK293T, TGF-beta/Smad reporter, beta-lactamase ratio; at 35.3 µM (top of the series)

SMILES | activity, negative = inhibition
CC[n+]1c(-c2ccccc2)c2cc(N)ccc2c2ccc(N)cc21 | inconclusive: -1.34%

Same assay, conditions: SBE-bla HEK293T, TGF-beta/Smad reporter, beta-lactamase ratio; at 76.8 µM (top of the series)

SMILES | activity, negative = inhibition
CC[n+]1c(-c2ccccc2)c2cc(N)ccc2c2ccc(N)cc21 | inconclusive: -2.48%
